Results: PubChem BioAssay AID1460 (National Center for Advancing Translational Sciences (NCATS), 2008)
Where “and” joins values, the source holds several entries; their conditions need not be identical. Equal values may be shown once. In all, about 270,000 compounds went through this assay and about 5,800 (2.1%) were called active. Inconclusive results, whose numbers are uncertain, are shown with a selection of clear calls. The call rests on the fitted dose curve; in most records, active means well fitted inhibition curve with a large enough effect; inconclusive means small, poorly fitted or top-dose-only effect; inactive means flat fitted curve, though single readings scatter. Where the call is inconclusive, the potency comes from a doubtful curve fit.

Target: Microtubule-associated protein tau (Homo sapiens) (UniProt P10636)
UniProt P10636, sequence (P10636 whole entry, looked up): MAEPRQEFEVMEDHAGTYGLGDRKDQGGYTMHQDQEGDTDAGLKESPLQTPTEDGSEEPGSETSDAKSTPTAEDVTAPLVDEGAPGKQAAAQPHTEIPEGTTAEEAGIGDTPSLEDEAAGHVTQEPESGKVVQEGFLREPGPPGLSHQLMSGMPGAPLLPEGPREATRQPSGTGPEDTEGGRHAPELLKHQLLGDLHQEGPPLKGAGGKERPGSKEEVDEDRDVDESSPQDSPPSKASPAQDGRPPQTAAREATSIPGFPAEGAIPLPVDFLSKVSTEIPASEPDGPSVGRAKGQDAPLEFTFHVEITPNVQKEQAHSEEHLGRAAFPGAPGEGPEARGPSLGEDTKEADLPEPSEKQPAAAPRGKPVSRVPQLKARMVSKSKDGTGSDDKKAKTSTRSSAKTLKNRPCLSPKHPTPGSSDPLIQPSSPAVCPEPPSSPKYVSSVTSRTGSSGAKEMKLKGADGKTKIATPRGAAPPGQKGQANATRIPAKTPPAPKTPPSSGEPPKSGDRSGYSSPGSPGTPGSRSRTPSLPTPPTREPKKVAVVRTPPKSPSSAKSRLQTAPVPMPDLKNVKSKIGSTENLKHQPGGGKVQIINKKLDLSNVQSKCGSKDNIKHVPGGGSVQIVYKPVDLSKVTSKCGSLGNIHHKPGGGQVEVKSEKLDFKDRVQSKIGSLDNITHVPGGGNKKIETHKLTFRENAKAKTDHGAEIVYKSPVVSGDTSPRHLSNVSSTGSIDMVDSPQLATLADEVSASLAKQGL
Assay: qHTS for Inhibitors of Tau Fibril Formation, Thioflavin T Binding; further: nearly all actives have a fitted effect of over 55% in size
Details: recombinant tau K18 P301L (four-repeat tau fragment), heparin-induced fibrillization, ThT fluorescence; series mostly up to 57.4 µM; activity, negative = inhibition: at the top concentration
Outline: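 K18 P301L tau (15 uM + 0.24 uM Alexa 594-tagged), heparin 20 uM, NaOAc pH 7, 6 h 37 C; ThT 30 uM, 1 h RT, ex 450/em 510 nm.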
On the % scale 0 is the no-effect control and ±100 the full control effect; potency means the concentration at half of the fitted maximal effect; tags describe the fitted curve by direction and shape.

| SMILES | activity, negative = inhibition | Potency |
| --- | --- | --- |
| O=C(Cn1ccc2cc(S(=O)(=O)N3CCCCCC3)ccc21)NCc1cccc(Cl)c1 | inactive: 9.65% | – |
| Cc1cc(C)c2oc(C(=O)N(Cc3ccccc3)c3ccccn3)cc(=O)c2c1 | – | inconclusive: 44.7 µM [inhibitor, single point] |
| Cc1coc2c(C)c3oc(=O)c(CCC(=O)N4CCCCC4)c(C)c3cc12 | – | inconclusive: 11.2 µM [inhibitor, partial curve] |
| COc1ccc(-c2nsc(NC(=O)c3oc4ccccc4c3C)n2)cc1 | – | inconclusive: 39.8 µM [activator, single point] |
| CCn1c(N)c(C(=O)NCC2CCCO2)sc1=S (stereo not given) | – | active: 35.5 µM |
| CCOC(=O)/C(=C/C=C1\Sc2ccccc2N1CC)C(C)=O | – | inconclusive: 12.6 µM [inhibitor, partial curve] |
| c1ccc(Nc2cccc(Nc3ccccc3)c2)cc1 | – | inconclusive: 15.8 µM [inhibitor, partial curve] |
| COc1ccc2cc3cc(C(=O)NCCN4CCN(c5ccccc5F)CC4)oc3nc2c1 | – | inconclusive: 6.31 µM [inhibitor, partial curve] |
| Cc1ccc(NC(=O)c2ccc(CSc3nnc(-c4ccncc4)n3C)cc2)c(C)c1 | – | inconclusive: 39.8 µM [inhibitor, single point] |
| COc1ccc(-c2nc3cc(NC(=O)COc4ccc(C)c(C)c4)ccc3o2)cc1 | – | inconclusive: 8.91 µM [inhibitor, partial curve, poor fit] |
| CC1CCN(C(NC(=O)c2ccco2)C(=O)c2ccccc2)CC1 (stereo not given) | – | inconclusive: 0.112 µM [inhibitor, full curve, poor fit] |
| COc1ccc(-c2cc(C(F)(F)F)nc(SCC(=O)Nc3ccc(O)cc3)n2)cc1OC | – | inconclusive: 20 µM [inhibitor, partial curve] |
| CCC(=O)Nc1ccc(OCc2nnc3c4ccccc4c(C)nn23)cc1 | – | inconclusive: 10 µM [inhibitor, partial curve] |
| Cc1ccc(S(=O)(=O)N(C(=O)c2ccncc2)c2ccc(OC(=O)c3ccncc3)c3ccccc23)cc1 | – | active: 25.1 µM |
| COc1ccccc1-c1c(C(F)(F)F)oc2cc(OC(=O)c3ccc([N+](=O)[O-])cc3)ccc2c1=O | – | inconclusive: 10 µM [inhibitor, partial curve] |
| CCC(=O)N1CCN(c2ccc(NC(=O)c3ccc([N+](=O)[O-])o3)cc2)CC1 | – | active: 3.16 µM |
| COc1cccc(N=Cc2c(O)n(-c3cccc(C)n3)c(=O)c3ccccc23)c1 | – | inconclusive: 25.1 µM [inhibitor, partial curve] |
| CCCc1ccc(-c2cc(N)n[nH]2)cc1 | – | inconclusive: 35.5 µM [inhibitor, partial curve, poor fit] |
| CCOc1ccccc1CNC(=O)c1cc2occc2n1C | – | inconclusive: 28.2 µM [inhibitor, single point] |
| Cc1ccc(NC(=O)c2cccc(NC(=O)N3CCSc4ncccc43)c2)cc1F | – | inconclusive: 31.6 µM [activator, single point] |
| CC/C(=N\NC(=O)c1ccc(Br)cc1)c1ccccc1 | – | inconclusive: 25.1 µM [inhibitor, partial curve] |
| COc1ccc(C2=C(C=C(C#N)C#N)C(c3ccccc3C)c3ccccc3O2)cc1OC (stereo not given) | – | inconclusive: 20 µM [inhibitor, partial curve] |

| SMILES | activity, negative = inhibition | Potency |
| --- | --- | --- |
| CCOC(=O)Cc1csc(NC(=O)c2sc3nc4c(C)cc(C)cc4cc3c2N)n1 | – | active: 15.8 µM |
| CCOc1cc(S(=O)(=O)N2CCN(c3ccc(F)cc3)CC2)c(OCC)cc1-n1cnnn1 | inactive: -10.3% | – |
| CC1CCN(C(=O)CSc2nnc(Cc3cccn3C)n2CCc2ccccc2)CC1 | – | inconclusive: 0.1 µM [inhibitor, full curve, poor fit] |
| CCOc1ccc(NC(=O)Nc2c[nH]c(=O)[nH]c2=O)cc1 | – | inconclusive: 25.1 µM [inhibitor, partial curve, poor fit] |
| COCCn1c(-c2ccco2)nc2nc3ccccc3nc21 | – | inconclusive: 25.1 µM [inhibitor, single point] |
| COc1ccc(NC(=O)CSc2ncc3c(n2)-c2ccccc2N(C)S3(=O)=O)cc1Cl | inactive: 3.75% | – |
| COc1ccc(Nc2ncc(C(=O)N3CCN(c4ccccc4OC)CC3)c3ccccc23)cc1 | – | inconclusive: 31.6 µM [inhibitor, single point] and inconclusive: 14.1 µM [inhibitor, partial curve] |
| CC1(OC(=O)C2CCCC2)C(=O)C=C2C=C(c3ccsc3)N(c3ccccc3)C=C2C1=O (stereo not given) | – | inconclusive: 12.6 µM [inhibitor, partial curve] |
| CCOc1ccc(C(=O)NCCc2sc(-c3ccc(F)cc3)nc2C)cc1 | – | inconclusive: 0.355 µM [inhibitor, full curve] |
| Cc1nn(Cc2c(F)c(F)c(F)c(F)c2F)c(C)c1NC(=O)c1ccc(COc2ccc(Cl)cc2Cl)o1 | – | inconclusive: 14.1 µM [inhibitor, single point] |
| Nc1ncc(S(=O)(=O)Nc2ccc(OC(F)(F)F)cc2)cn1 | inactive: -1.64% | – |
| COc1ccc(C2C(C(C)=O)=C(O)C(=O)N2CCN(C)C)cc1OC (stereo not given) | inactive: 4.6% | – |
| Oc1ccc(Br)cc1/C=N/N1CCN(Cc2ccccc2)CC1 | inactive: -12.1% | – |
| COc1ccccc1N1CCN(Cc2ccc(O)c3ncccc23)CC1 | – | inconclusive: 15.8 µM [inhibitor, partial curve] |
| O=C(Nc1ccc(F)c(Cl)c1)C1CCN(S(=O)(=O)c2ccc3c(c2)CCCN3C(=O)C2CCC2)CC1 | inactive: -2.21% | – |
| COC(=O)c1ccc(/C=N/n2cnnc2)cc1 | – | inconclusive: 11.2 µM [inhibitor, partial curve] |
| O=C(NC(=S)Nc1ccc(NC(=O)c2ccco2)cc1)c1ccccc1 | inactive: -4.26% | – |
| Cc1ccc(CSc2cn(CCNC(=O)c3cccs3)c3ccccc23)cc1 | – | inconclusive: 12.6 µM [inhibitor, partial curve] |
| CN(C)S(=O)(=O)c1cc(NC(=O)COC(=O)Cc2ccc(Cl)cc2Cl)ccc1Cl | inactive: -1.82% | – |
| CC(C)Sc1nc2sc3c(c2c(=O)n1-c1ccccc1)CCCC3 | – | inconclusive: 6.31 µM [inhibitor, partial curve] |
| COc1ccc(NC(=O)C(=O)NNC(=O)c2cccs2)c(OC)c1 | – | inconclusive: 20 µM [inhibitor, partial curve] |
| Cn1cnnc1SCC(=O)Nc1sc2c(c1C(N)=O)CCC2 | – | inconclusive: 8.91 µM [inhibitor, partial curve] |

| SMILES | activity, negative = inhibition | Potency |
| --- | --- | --- |
| O=C(Nc1nnc(N2CCCCCC2)s1)c1cc(-c2ccc(Br)cc2)on1 | – | inconclusive: 3.16 µM [inhibitor, full curve] |
| N#CC(c1ccc(Cl)nn1)c1ccccc1Cl (stereo not given) | inactive: -10.1% | – |
| Cc1n[nH]c(=O)nc1NCc1ccco1 | inactive: -11.8% | – |
| CN(CC1CCOCC1)C(=O)CC1C(=O)NCCN1Cc1ccc(-c2ccccc2)cc1 (stereo not given) | – | inconclusive: 3.98 µM [inhibitor, full curve, poor fit] |
| Cc1ccc(OCc2cc(=O)n3c4c(sc3n2)CCCC4)cc1C | – | inconclusive: 1.58 µM [inhibitor, full curve] |
| NC(N)=N/N=C/c1ccc2cccc(OCc3ccccc3)c2n1 | – | inconclusive: 28.2 µM [inhibitor, single point] |
| O=C1Nc2ccccc2/C1=N\c1sc2c(c1C(=O)Nc1ccccc1)CCCC2 | – | inconclusive: 20 µM [inhibitor, partial curve] |
| Cc1[nH]n(-c2ccc(F)cc2)c(=O)c1C=Nc1ccc(S(=O)(=O)N(C)C)cc1 | – | inconclusive: 22.4 µM [inhibitor, single point] |
| COc1cc(OC)cc(C(=O)Nc2ccc3c(c2)n(C)c(=O)c(=O)n3C)c1 | – | inconclusive: 5.01 µM [inhibitor, partial curve] |
| COc1ccc(S(=O)(=O)N(CC(=O)Nc2ccc3c(c2)OCO3)c2ccc(C)cc2)cc1 | – | inconclusive: 22.4 µM [inhibitor, single point] |
| COC(=O)[C@@]1(Cc2ccc(OC)cc2)[C@@H]2C(=CC(=O)[C@H]2CC(=O)C(=O)N2CCCC2)CN1C(=O)c1ccccc1 | – | inconclusive: 17.8 µM [inhibitor, partial curve] and inconclusive: 12.6 µM [inhibitor, partial curve] |
| O=C(N/N=C/c1cccs1)c1ccc(NC(=O)c2ccccc2Cl)cc1 | – | inconclusive: 1.12 µM [inhibitor, full curve, poor fit] |
| Cc1ccc([N+](=O)[O-])cc1NC(=O)Cc1cccs1 | – | inconclusive: 20 µM [inhibitor, single point] |
| C=CCOc1ccc(Br)cc1/C=N/O | inactive: -19.2% | – |
| CC1CCN(C(=O)C2c3ccccc3C(=O)N3CCc4ccccc4C23)CC1 (stereo not given) | inactive: -17.8% | – |
| COc1ccc(OC)c(NC(=O)c2c(NCc3ccc(N(C)C)cc3)sc3c2CCCC3)c1 | – | inconclusive: 12.6 µM [inhibitor, partial curve] |
| COc1ccc(NC(=O)c2oc3ccccc3c2NC(=O)C23CC4CC(CC(C4)C2)C3)cc1 | – | inconclusive: 8.91 µM [inhibitor, single point] |
| COC(=O)c1ccc(Oc2nc3c(c(=O)n(C)c(=O)n3C)n2Cc2ccc(Cl)c(Cl)c2)cc1 | inactive: -6.47% | – |
| CCC(=O)Nc1cccc(OCc2cc(=O)n3cc(C)ccc3n2)c1 | inactive: -11.2% | – |
| c1ccc(-c2cn3c4c(sc3n2)CCCC4)cc1 | – | inconclusive: 10 µM [inhibitor, partial curve] |
| C/C(=N\NC(=O)c1ccc2c(c1)OCO2)c1ccc2c(c1)OCO2 | – | inconclusive: 3.98 µM [inhibitor, partial curve] |
